This is an account of results in patent US20210260163A1.

For the test, the target named is 589A knob HC-IL2 half (SEQ ID NO: 209 with light chain SEQ ID NO: 216) of the 589A-IL-2 prodrugs (human). The test can be described thus: cell-based or functional assay.

B1: 589A hole HC-mask half of 589A-IL-2C (SEQ ID NO: 212 with light chain SEQ ID NO: 216) (protein)
heavy: EVQLVESGGGLVKPGGSLRLSCAVSGFYFNRGYWICWVRQAPGKGLEWIGCIDTGSGVPYYANWAKGRFTISRHTSKTTLTLQMNSLRAEDTASYFCARNSDSIYFNLWGPGTLVTVSS[no letters for human IgG1 constant region with Y407T (EU numbers)]GGGGSLSGRSDNHGGGGSGGGGSGGGGSAVNGTSQFTCFYNSRANISCVWSQDGALQDTSCQVHAWPDRRRWNQTCELLPVSQASWACNLILGAPDSQKLTTVDIVTLRVLCREGVRWRVMAIQDFKPFENLRLMAPISLQVVHVETHRCNISWEISQASHYFERHLEFEARTLSPGHTWEEAPLLTLKQKQEWICLETLTPDTQYEFQVRVKPLQGEFTTWSPWSQPLAFRTKPAALGKDT
light: DIQMTQSPSSVSASVGDRVTITCQASQSIGGYISWYQQKPGQPPKLLIYKASTLASGVPSRFKGSGSGTDFTLTISSLDSEDAATYYCQNYAGVSIYGAVFGGGTKVVVKRTVAAPSVFIFPPSDEQLKSGTASVVCLLNNFYPREAKVQWKVDNALQSGNSQESVTEQDSKDSTYSLSSTLTLSKADYEKHKVYACEVTHQGLSSPVTKSFNRGEC
As for B1, the CTLL2 Activity EC50 (nM), Activated, 589A-IL-2C came out at 218 nM and the CTLL2 Activity EC50 (nM), Not activated, 589A-IL-2C was 8320 nM.

B2: 589A hole HC-mask half of 589A-IL-2E (SEQ ID NO: 214 with light chain SEQ ID NO: 216) (protein)
heavy: DIQMTQSPSSVSASVGDRVTITCQASQSIGGYLSWYQQKPGQPPKLLIYKASTLASGVPSRFKGSGSGTDFTLTISSLDSEDAATYYCQNYAGVSIYGAVFGGGTKVVVKRTVAAPSVFIFPPSDEQLKSGTASVVCLLNNFYPREAKVQWKVDNALQSGNSQESVTEQDSKDSTYSLSSTLTLSKADYEKHKVYACEVTHQGLSSPVTKSFNRGECEVQLVESGGGLVKPGGSLRLSCAVSGFYFNRGYWICWVRQAPGKGLEWIGCIDTGSGVPYYANWAKGRFTISRHTSKTTLTLQMNSLRAEDTASYFCARNSDSIYFNLWGPGTLVTVSS[no letters for human IgG1 constant region with Y407T (EU numbers)]GGGGSLSGRSDNHGGGGSAVNGTSQFTCFYNSRANISCVWSQDGALQDTSCQVHAWPDRRRWNQTCELLPVSQASWACNLILGAPDSQKLTTVDIVTLRVLCREGVRWRVMAIQDFKPFENLRLMAPISLQVVHVETHRCNISWEISQASHYFERHLEFEARTLSPGHTWEEAPLLTLKQKQEWICLETLTPDTQYEFQVRVKPLQGEFTTWSPWSQPLAFRTKPAALGKDT
light: DIQMTQSPSSVSASVGDRVTITCQASQSIGGYISWYQQKPGQPPKLLIYKASTLASGVPSRFKGSGSGTDFTLTISSLDSEDAATYYCQNYAGVSIYGAVFGGGTKVVVKRTVAAPSVFIFPPSDEQLKSGTASVVCLLNNFYPREAKVQWKVDNALQSGNSQESVTEQDSKDSTYSLSSTLTLSKADYEKHKVYACEVTHQGLSSPVTKSFNRGEC
Take B2: the CTLL2 Activity EC50 (nM), Activated, 589A-IL-2E came to 55 nM.
